Data taken from article PMC4336329 (PLoS ONE, 2015).
The whole screen tested about 310,000 compounds, of which about 14,000 (4.5%) showed an effect of 50% or more. Effects have a minus sign here. This is one part of the list.

target: human ether-à-go-go-related gene (hERG) potassium channel (human, UniProt Q12809); experiment: primary screen, population patch clamp on CHO cells stably expressing hERG
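Further: peak tail current of the secondary pulse compared with the same well before compound.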

human ether-à-go-go-related gene (hERG) potassium channel, sequence (Q12809 whole entry, looked up): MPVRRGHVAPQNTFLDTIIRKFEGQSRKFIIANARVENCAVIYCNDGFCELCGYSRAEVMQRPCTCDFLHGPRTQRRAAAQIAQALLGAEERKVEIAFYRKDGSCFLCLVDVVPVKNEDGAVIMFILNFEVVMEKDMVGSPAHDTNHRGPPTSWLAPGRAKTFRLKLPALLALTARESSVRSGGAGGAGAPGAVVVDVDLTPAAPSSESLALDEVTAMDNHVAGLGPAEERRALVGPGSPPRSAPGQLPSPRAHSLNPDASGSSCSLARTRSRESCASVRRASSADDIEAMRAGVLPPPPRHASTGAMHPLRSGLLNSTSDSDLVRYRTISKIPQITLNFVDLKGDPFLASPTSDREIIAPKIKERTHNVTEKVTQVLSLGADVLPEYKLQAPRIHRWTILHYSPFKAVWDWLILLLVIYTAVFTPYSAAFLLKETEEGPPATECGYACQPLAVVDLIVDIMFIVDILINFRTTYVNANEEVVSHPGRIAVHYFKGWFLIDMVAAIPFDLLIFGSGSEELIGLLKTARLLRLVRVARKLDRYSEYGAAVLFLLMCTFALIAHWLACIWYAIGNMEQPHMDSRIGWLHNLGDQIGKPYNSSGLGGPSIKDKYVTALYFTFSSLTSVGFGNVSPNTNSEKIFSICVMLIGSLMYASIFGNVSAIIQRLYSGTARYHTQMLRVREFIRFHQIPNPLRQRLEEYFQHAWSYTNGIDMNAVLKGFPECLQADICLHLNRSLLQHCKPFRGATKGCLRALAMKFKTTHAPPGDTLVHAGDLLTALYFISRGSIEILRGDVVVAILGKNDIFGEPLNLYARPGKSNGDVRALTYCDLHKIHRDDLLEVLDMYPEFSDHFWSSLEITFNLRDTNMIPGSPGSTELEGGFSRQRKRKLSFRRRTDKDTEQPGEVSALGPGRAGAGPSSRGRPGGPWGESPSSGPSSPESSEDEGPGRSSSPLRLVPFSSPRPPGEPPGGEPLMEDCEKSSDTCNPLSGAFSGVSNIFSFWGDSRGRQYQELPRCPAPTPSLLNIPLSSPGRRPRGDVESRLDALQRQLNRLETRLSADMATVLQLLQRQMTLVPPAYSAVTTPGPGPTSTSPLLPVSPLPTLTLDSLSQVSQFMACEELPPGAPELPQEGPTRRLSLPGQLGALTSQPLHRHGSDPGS

| SMILES | hERG current change (%, negative = inhibition) at 10uM |
| --- | --- |
| O=c1c2cc(Br)ccc2nc2n1CCCCC2 | -35.8% |
| c1csc(C2=NNC(=NC3CCCCC3)SC2)c1 | 2.39% |
| CN(CCOc1ccccc1)C(=O)c1cc(-c2ccco2)nc2ccccc12 | -23.1% |
| C/C(=N\NC(=O)c1ccc(CSc2nncn2C)cc1)c1cccs1 | 2.42% |
| O=C(N1CCN(c2ccc(F)cc2)CC1)C12CC3CC(CC(C3)C1)C2 | 5.05% |
| Fc1ccc(OCc2nnc(SCCN3CCOCC3)o2)cc1 | -16.1% |
| COCCCNC(=O)COc1cc2c(c3oc(=O)c(C)c(C)c13)CCC(C)(C)O2 | -10.2% |
| C#Cc1ccc([C@@H]2C=C(C(=O)OCC=C)O[C@H](OCC)[C@H]2CCCO)cc1 | -27.6% |
| CCc1ccc(-n2c(O)cnc2Nc2nc(C)cc(C)n2)cc1 | -8.25% |
| Cc1c(C(=O)Nc2ccccn2)oc2ccccc12 | -19.8% |
| CCc1ccc(Nc2nnc(SCc3cc(=O)n4ccsc4n3)s2)cc1 | -11.5% |
| O=C(NCc1cccc(Cl)c1)c1cc(COc2ccc3ncccc3c2)on1 | -4.85% |
| CCCCSc1cc(C)nc2ncnn12 | -6.82% |
| CC12CC3CC(C)(C1)CC(C(=O)NNC(=O)c1ccncc1)(C3)C2 | 0.638% |
| O=C(C1CC1)N1CCc2[nH]c3ccccc3c2C1 | 12% |
| Cc1ccc(C2CN=NC23CCc2ccccc2C3=O)cc1 (stereo not shown) | -2.87% |
| O=C(CCl)Nc1ccccc1Sc1ccc(Cl)cc1 | -7.64% |
| Cn1cnc2c(cnn2-c2ccccc2)c1=O | 10.6% |
| O=C(C1c2ccccc2C(=O)N2CCc3ccccc3C12)N1CCN(Cc2ccccc2)CC1 (stereo not shown) | -9.6% |
| Cc1ccc(C(C(=O)NCC2CCCO2)N(C(=O)c2snc(C(N)=O)c2N)c2ccc(C)c(C)c2)o1 (stereo not shown) | -9.57% |
| CSc1ccc(CNC(=O)Cn2nc(C)c3c(C)n(-c4ccc(C)cc4)nc3c2=O)cc1 | -15% |
| CCCCNC(=O)C1CCN(c2nc(OC)nc(OC)n2)CC1 | -10.6% |

| SMILES | hERG current change (%, negative = inhibition) at 10uM |
| --- | --- |
| COc1ccc(CNC(=O)c2ccc(-c3ccccc3)cc2)cc1OC | 0.777% |
| CC(=O)C1=C(O)CC(c2ccccc2)CC1=NCCc1c(C)[nH]c2ccccc12 (stereo not shown) | 0.412% |
| COc1ccc(C(O)c2nccn2Cc2ccccc2)cc1OC (stereo not shown) | -9% |
| CCOC(=O)COc1ccc2c(c1)C(=O)CC(C)(C)O2 | 1.78% |
| Cc1ccc(C(=O)NC2CCC(C)CC2)o1 (stereo not shown) | 0.0261% |
| O=C(Nc1ccc(N2CCCC2)cc1)c1cc(Br)ccc1Cl | 14.2% |
| CCCCOCCCNS(=O)(=O)c1ccccc1 | 2.77% |
| COc1ccc(C(=O)Nc2nnc(-c3cccs3)s2)cc1 | 21% |
| C=C1/C(=C\C=C2/CCC[C@]3(C)[C@@H]([C@H](C)/C=C/[C@@H](O)C4CC4)CC[C@@H]23)C[C@@H](O)C[C@@H]1O | -19.9% |
| Cl.N[C@@H]1C[C@H]1c1ccccc1 | 14% |
| Cc1ccc2nsnc2c1NC(=O)c1cccnc1Cl | 11.6% |
| CSc1ccc(C2C(C(=O)c3ccco3)=C(O)C(=O)N2c2nnc(SC)s2)cc1 (stereo not shown) | 13.4% |
| COc1ccc(Br)c(C(=O)NCC2CCCCC2)c1 | 0.58% |
| O=C1[C@H]2[C@@H](c3ccc(Cl)cc3)N3C(=O)N(c4cccc(Cl)c4)C(=O)[C@@]3(Cc3ccc(Cl)cc3)[C@H]2C(=O)N1C1CCCCC1 | 22% |
| O=C(NCc1ccc2c(c1)OCO2)c1ccc2c(=O)n(C3CCCC3)c(=O)[nH]c2c1 | 4.61% |
| CCC1CCCCN1CCCNC(=O)c1ccc2c(c1)c(C)c(C)n2CC (stereo not shown) | -38.8% |
| Cc1cc(C)c(NC(=S)N2CCC(N(C)CC3CCCO3)CC2)c(C)c1 (stereo not shown) | 6.06% |
| Cc1n[nH]c(C)c1CNCc1c(C(=O)N2CCCCCCC2)nc2ccc(Cl)cn12 | 8.07% |
| CC1(CC(=O)N/N=C/c2ccc(OCc3ccc(Cl)cc3Cl)cc2)OCCCO1 | 5.38% |
| CC(=O)Nc1ccc(C2=NN(C)C(=NCc3ccccc3)SC2)cc1 | 9.11% |
| COc1cc(C(=O)N(CCN(C)C)CC2CCCN(Cc3ccccc3F)C2)ccc1C (stereo not shown) | -27% |
